Experimental data from the antibiotic and cytotoxicity screens of Wong et al. (2023).
The list shows a part of the results.

The compounds below were run on HSkMC (human skeletal muscle cells) (assay: cytotoxicity call (relative viability < 0.9)). Conditions: 10 µM.

| SMILES | cytotoxicity call |
| --- | --- |
| Fc1cccc(CSCc2c(F)cccc2Cl)c1 | inactive |
| C[C@H](CO)N1C[C@H](C)[C@H](CN(C)Cc2ccc(C(=O)O)cc2)Oc2ccc(NS(=O)(=O)c3cn(C)cn3)cc2C1=O | inactive |
| C[C@H]1CN([C@@H](C)CO)C(=O)c2cc(NC(=O)Nc3cccc4ccccc34)ccc2O[C@@H]1CN(C)Cc1ccc(Cl)c(Cl)c1 | inactive |
| C[C@H]1CN([C@@H](C)CO)S(=O)(=O)c2ccc(-c3cncnc3)cc2O[C@H]1CN(C)C(=O)c1cccc(F)c1 | inactive |
| C[C@@H]1CCCCO[C@H](CN(C)C(=O)Nc2ccc(F)cc2)[C@H](C)CN([C@@H](C)CO)C(=O)c2cc(NS(=O)(=O)c3ccc(F)cc3)ccc2O1 | inactive |
| C[C@@H]1CCCCO[C@@H](CN(C)C(=O)c2ccccc2)[C@H](C)CN([C@@H](C)CO)C(=O)c2cc(NC(=O)Nc3ccc(C(F)(F)F)cc3)ccc2O1 | inactive |
| C[C@@H]1CN([C@H](C)CO)S(=O)(=O)c2ccc(C#Cc3ccc(F)cc3)cc2O[C@@H]1CN(C)C(=O)c1ccccn1 | inactive |
| COc1ccc(S(=O)(=O)Nc2ccc3c(c2)C(=O)N([C@H](C)CO)C[C@@H](C)[C@@H](CN(C)C(=O)Nc2ccccc2)OCCCC[C@@H](C)O3)cc1 | inactive |
| O=C(C[C@H]1C[C@H]2c3cc(NC(=O)Cc4ccncc4)ccc3O[C@H]2[C@@H](CO)O1)NCc1cccc(F)c1 | inactive |
| C[C@@H]1CN([C@H](C)CO)C(=O)c2cccc(NS(=O)(=O)c3cccs3)c2O[C@@H]1CN(C)Cc1ccc(-c2ccccc2)cc1 | inactive |

What follows are compounds tested on HepG2 (assay: cytotoxicity call (relative viability < 0.9)). Conditions: 10 µM.

| SMILES | cytotoxicity call |
| --- | --- |
| C[C@H]1CN([C@@H](C)CO)S(=O)(=O)c2ccc(C#Cc3ccc(F)cc3)cc2O[C@@H]1CN(C)C(=O)CN(C)C | inactive |
| CN(C)C(=O)c1ccc(-c2cccc(-c3nc(C(=O)NC4CCCC4)cc4c3[C@H](CCO)N([S@@](=O)C(C)(C)C)C4)c2)cc1 | inactive |
| O=C(C[C@@H]1CC[C@H]2[C@@H](COC[C@H](O)CN2C(=O)Nc2cccc(Cl)c2)O1)NCCCN1CCOCC1 | inactive |
| CC(C)NC(=O)Nc1ccc2c(c1)C(=O)N([C@H](C)CO)C[C@@H](C)[C@@H](CN(C)C(=O)Nc1ccc(C(F)(F)F)cc1)OCCCC[C@@H](C)O2 | active |
| NCCCc1nc2c(s1)CCCC2 | inactive |
| Cc1noc(C)c1S(=O)(=O)N(C)C[C@H]1Oc2ccc(NC(=O)NC3CCCCC3)cc2CC(=O)N([C@H](C)CO)C[C@@H]1C | inactive |
| C[C@@H]1CCCCO[C@@H](CN(C)C(=O)Nc2ccc(C(F)(F)F)cc2)[C@H](C)CN([C@@H](C)CO)C(=O)c2cc(NS(=O)(=O)c3cn(C)cn3)ccc2O1 | inactive |
| Cc1noc(C)c1S(=O)(=O)Nc1cccc2c1O[C@H](CN(C)S(=O)(=O)c1ccc(F)cc1)[C@H](C)CN([C@@H](C)CO)C2=O | inactive |
| COc1cccc(NC(=O)N(C)C[C@H]2Oc3cc(Br)ccc3S(=O)(=O)N([C@H](C)CO)C[C@H]2C)c1 | inactive |
| COc1ccc(S(=O)(=O)N(C)C[C@@H]2Oc3ccc(NC(=O)Nc4c(C)noc4C)cc3CC(=O)N([C@@H](C)CO)C[C@H]2C)cc1 | inactive |
| C[C@@H]1CCCCO[C@@H](CN(C)C(=O)c2ccccc2)[C@@H](C)CN([C@@H](C)CO)C(=O)c2cc(NC(=O)c3ccccc3)ccc2O1 | inactive |
| Cc1ccc(S(=O)(=O)Nc2ccc3c(c2)C(=O)N([C@@H](C)CO)C[C@@H](C)[C@H](CN(C)C(=O)C2CCCCC2)OCCCC[C@H](C)O3)cc1 | inactive |
| C[C@@H]1CN([C@H](C)CO)C(=O)Cc2cc(NC(=O)NC3CCCCC3)ccc2O[C@@H]1CN(C)Cc1ccc(Oc2ccccc2)cc1 | active |
| COCC(=O)N(C)C[C@@H]1Oc2cc(-c3ccc(OC)cc3)ccc2S(=O)(=O)N([C@@H](C)CO)C[C@@H]1C | inactive |
| C[C@H]1CN([C@@H](C)CO)C(=O)c2cc(-c3cccc(C#N)c3)cnc2O[C@@H]1CN(C)C(=O)c1cnccn1 | inactive |
| NCC[C@@H]1CC[C@@H](NC(=O)C2CCCCC2)[C@@H](CO)O1 | inactive |
| OC[C@@H]1CCCCN1 | inactive |
| CC(C)NC(=O)N(C)C[C@@H]1Oc2ccc(NC(=O)c3ccncc3)cc2CC(=O)N([C@H](C)CO)C[C@@H]1C | inactive |
| O=C(C[C@H]1C[C@H]2c3cc(NC(=O)Nc4ccc(C(F)(F)F)cc4)ccc3O[C@H]2[C@H](CO)O1)NCc1cc(F)ccc1F | inactive |
| C[C@H](CO)N1C[C@H](C)[C@H](CN(C)S(=O)(=O)c2ccccc2F)Oc2cc(C#Cc3ccccc3)ccc2S1(=O)=O | inactive |

| SMILES | cytotoxicity call |
| --- | --- |
| COc1ccc(CCN2C(=O)[C@@]3(c4ccc([N+](=O)[O-])cc4)CC(=O)N(CC45CC6CC(CC(C6)C4)C5)[C@@H]3c3ccc(CO)cc32)cc1 | inactive |
| C[C@H](CO)N1C[C@H](C)[C@H](CN(C)S(=O)(=O)c2cn(C)cn2)Oc2ccc(NS(=O)(=O)c3cn(C)cn3)cc2C1=O | inactive |
| NC(Cc1c[nH]c2ccccc12)C(=O)O (stereo not given) | inactive |
| C[C@@H]1CN([C@@H](C)CO)C(=O)Cc2cc(NC(=O)Nc3ccc(C(F)(F)F)cc3)ccc2O[C@@H]1CN(C)C(=O)NC1CCCCC1 | active |
| C[C@@H]1CN([C@@H](C)CO)C(=O)c2cc(NC(=O)Cc3ccccc3)ccc2O[C@H]1CN(C)Cc1ccc(C(F)(F)F)cc1 | inactive |
| C[C@@H]1CCCCO[C@@H](CN(C)C(=O)Nc2ccc3c(c2)OCO3)[C@@H](C)CN([C@H](C)CO)C(=O)c2cc(NS(=O)(=O)c3ccc(Cl)cc3)ccc2O1 | inactive |
| C[C@H]1CN([C@@H](C)CO)C(=O)c2cc(Br)cnc2O[C@@H]1CN(C)Cc1ccc2c(c1)OCO2 | inactive |
| NC(=O)NC1CCCCC1 | inactive |
| C[C@H](CO)N1C[C@H](C)[C@@H](CN(C)C(=O)Nc2ccc(F)cc2)Oc2ccc(NC(=O)Nc3cccc4ccccc34)cc2CC1=O | inactive |
| C[C@H]1CN([C@@H](C)CO)C(=O)Cc2cc(NC(=O)CCC(F)(F)F)ccc2O[C@@H]1CN(C)Cc1ccc(C(F)(F)F)cc1 | inactive |
| Fc1cccc(CSCc2c(F)cccc2Cl)c1 | inactive |
| C[C@H](CO)N1C[C@H](C)[C@H](CN(C)Cc2ccc(C(=O)O)cc2)Oc2ccc(NS(=O)(=O)c3cn(C)cn3)cc2C1=O | inactive |
| C[C@H]1CN([C@@H](C)CO)C(=O)c2cc(NC(=O)Nc3cccc4ccccc34)ccc2O[C@@H]1CN(C)Cc1ccc(Cl)c(Cl)c1 | inactive |
| C[C@H]1CN([C@@H](C)CO)S(=O)(=O)c2ccc(-c3cncnc3)cc2O[C@H]1CN(C)C(=O)c1cccc(F)c1 | inactive |
| C[C@@H]1CCCCO[C@H](CN(C)C(=O)Nc2ccc(F)cc2)[C@H](C)CN([C@@H](C)CO)C(=O)c2cc(NS(=O)(=O)c3ccc(F)cc3)ccc2O1 | inactive |
| C[C@@H]1CCCCO[C@@H](CN(C)C(=O)c2ccccc2)[C@H](C)CN([C@@H](C)CO)C(=O)c2cc(NC(=O)Nc3ccc(C(F)(F)F)cc3)ccc2O1 | inactive |
| C[C@@H]1CN([C@H](C)CO)S(=O)(=O)c2ccc(C#Cc3ccc(F)cc3)cc2O[C@@H]1CN(C)C(=O)c1ccccn1 | inactive |
| COc1ccc(S(=O)(=O)Nc2ccc3c(c2)C(=O)N([C@H](C)CO)C[C@@H](C)[C@@H](CN(C)C(=O)Nc2ccccc2)OCCCC[C@@H](C)O3)cc1 | inactive |
| O=C(C[C@H]1C[C@H]2c3cc(NC(=O)Cc4ccncc4)ccc3O[C@H]2[C@@H](CO)O1)NCc1cccc(F)c1 | inactive |
| C[C@@H]1CN([C@H](C)CO)C(=O)c2cccc(NS(=O)(=O)c3cccs3)c2O[C@@H]1CN(C)Cc1ccc(-c2ccccc2)cc1 | inactive |
